# Reference: PubChem BioAssay (NCATS)
# The inconclusive results got no clear call from the source; some entries with a clear call stand among them for comparison. Entries that show only a call come without a potency. For some assays here: Potencies beside an inconclusive call are fits to weak or partial responses and may not hold up. For some assays here: “Side channel” marks fits to a control or component signal instead of the main read-out. Active and inactive are the calls of the source. Unless noted, the call rests on the fitted dose curve; in most records, active means well fitted curve in the direction sought with a large enough effect; inconclusive means small, poorly fitted or top-dose-only effect, or another doubt; inactive means no such curve, though single readings can be large; an effect the other way counts as inactive or inconclusive.
# How the values were obtained:
# [1] = Cell Viability - LYMP2-002 (AID 977); settings: LYMP2-002 lymphoblastoid cell viability, qHTS; activity change, negative = cytotoxic: at 92.2 µM (top of the series); further: potency means the concentration at half of the fitted maximal effect
# In short: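 Luminescent ATP readout (CellTiter-Glo, 30 min room temperature) after 24 h compound exposure at 37 C of a human lymphoblastoid line, 2500 cells/well. AC50 values derived by standard Hill fitting of qHTS concentration-response data.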
# [2] = biological target: Androgen receptor (Homo sapiens) (UniProt P10275); test: qHTS assay for small molecule antagonists of androgen receptor signaling (AID 588516; active means well fitted curve in the direction sought with a large enough effect in the signal ratio, with a control signal flat, not every such curve was filed as active; inconclusive means small, poorly fitted or top-dose-only effect, or effect the other way, or a change in a side signal; inactive means no such curve, though single readings can be large or run the other way; the % refers to the signal ratio); settings: AR-UAS-bla HEK293, beta-lactamase ratio, antagonist mode, 16 h; activity change, negative = inhibition: at 76.8 µM (top of the series)
# In short: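 Antagonist-mode qHTS: inhibition of R1881 (10 nM)-driven beta-lactamase expression in GripTite HEK 293 cells is measured after 16 h; values are Hill-derived IC50s normalized between R1881 and DMSO wells.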
# [3] = Cell Viability - N2a (AID 540); settings: N2a mouse neuroblastoma cell viability; activity change, negative = cytotoxicity: at 92.2 µM (top of the series);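 further: cells exposed to compound for 40 h at 37 °C; nearly all actives have a fitted effect of over 45% in size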
# In short: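 First, 1500 N2a cells per well incubate 5 hr at 37 °C; next, compounds are added and incubated 40 hr at 37 °C; finally CellTiter-Glo is added and luminescence read after 20 min, with AC50 derived by Hill modeling.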
# [4] = Cellular Toxicity (caspase-3) H-4-II-E (AID 663); settings: H-4-II-E rat hepatoma; Potency: caspase-3 activation; caspase-3 activation: at 92.2 µM (top of the series), scaled: DMSO 0%, 100 µM tamoxifen 100%;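 further: cells exposed to compound for 16 hr before readout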
# In short: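 Luminescence from caspase-cleaved aminoluciferin substrate, read 20 min after reagent addition, reports caspase 3/7 activation in rat H-4-II-E cells after 16 hr compound exposure. Normalized to DMSO (basal) and 100 uM tamoxifen (100%); AC50 from Hill fits.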
# [5] = biological target: Cytochrome P450 2C19 (Homo sapiens) (UniProt P33261); test: qHTS Assay for Inhibitors and Substrates of Cytochrome P450 2C19 (AID 899); further: potency means the concentration at half of the fitted maximal effect; nearly all actives have a fitted effect of over 60% in size
# In short: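 In 50mM KPO4, the reaction held 5nM enzyme and KM-level (10uM) Luciferin-H EGE; it ran 60 min at 37C after NADPH regeneration and a 10 min compound preincubation. Luminescence values were scaled to 57uM ketoconazole as complete inhibition.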
# [6] = biological target: Cytochrome P450 2D6 (Homo sapiens) (UniProt P10635); test: qHTS Assay for Inhibitors and Substrates of Cytochrome P450 2D6 (AID 891); settings: recombinant CYP2D6, luciferin-ME EGE luminescence; activity change, negative = inhibition: at 57.1 µM (top of the series);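 further: luciferin methyl ether substrate demethylated by CYP2D6 with NADPH regeneration; top concentration of the series differs between compounds; nearly all actives have a fitted effect of over 60% in size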
# In short: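 Human CYP2D6 (5 nM) with 30 uM Luciferin-ME EGE (at Km) in 100 mM KPO4, compound preincubated 10 min, then NADPH regeneration system for 60 min at room temperature. Luciferin read by luminescence; normalized to 1.43 uM quinidine.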
# [7] = Cell Viability - LYMP2-011 (AID 969);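 further: cells exposed to compound for 24 hours; nearly all actives have a fitted effect of over 60% in size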
# In short: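 Acute toxicity is scored as a concentration-dependent drop in intracellular ATP of a human lymphoblastoid line after 24 hr treatment. Values are AC50s modeled with the Hill equation.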
# [8] = biological target: Androgen receptor (Homo sapiens) (UniProt P10275); test: qHTS assay for small molecule agonists of androgen receptor signaling (AID 588515; active means well fitted curve in the direction sought with a large enough effect in the signal ratio, with a control signal flat; inconclusive means small, poorly fitted or top-dose-only effect, or effect the other way, or a change in a side signal; inactive means no such curve, though single readings can be large or run the other way; the % refers to the signal ratio; further: potency means the concentration at half of the fitted maximal effect); settings: AR-UAS-bla HEK293, beta-lactamase ratio, agonist 16 h; activation: active compounds read high
# In short: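 EC50 and efficacy came from Hill fits of titrations (up to 92 uM) normalized to 30 nM R1881 as 100% and DMSO as 0%. Compound exposure was 16 h at 37 C on AR-UAS-bla HEK293 cells, with a 405/460/530 nm CCF4 fluorescence read.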
# [9] = biological target: Vitamin D3 receptor (Homo sapiens) (UniProt P11473); test: qHTS assay for small molecule agonists of vitamin D receptor signaling (AID 588543; calls by dose curve); settings: HEK293T VDR-UAS-bla, beta-lactamase ratio, 16 h; activation: at 76.8 µM (top of the series)
# In short: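 Agonist-mode beta-lactamase reporter: HEK293T VDR-UAS-bla cells in charcoal-stripped 2% FBS, compound series 16 h 37 C, CCF4 2 h RT. EC50 from Hill fit, scaled against DMSO and 50 nM calcitriol control.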
# [10] = qHTS assay for small molecule activators of the nuclear factor-kappa B (NF-kB) signaling pathway (AID 651749; active means well fitted activation curve with a large enough effect in the signal ratio; inconclusive means small, poorly fitted or top-dose-only effect, or a change in a side signal; the % refers to the signal ratio; further: potency means the concentration at half of the fitted maximal effect); settings: NF-kB-bla ME-180 cells, beta-lactamase FRET ratio, 16 h; activation: active compounds read high
# In short: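 ME-180 cells stably carrying a beta-lactamase reporter under an NF-kB response element were exposed to compound or DMSO vehicle for 16 hr at 37C, 5% CO2. Pathway activation was read by FRET, since reporter expression disrupts FRET.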
# [11] = Cell Viability - LYMP2-023 (AID 975);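 further: cellular ATP measured by luciferase luminescence as viability proxy; cells exposed to compound for 24 hours at 37 °C; nearly all actives have a fitted effect of over 55% in size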
# In short: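 Concentration-dependent drop in intracellular ATP measures acute cytotoxicity in a human lymphoblastoid line treated for 24 hours in complete culture medium. AC50 values are taken from Hill-equation fits of qHTS data.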
# [12] = MultiTox-Fluor Cytotoxicity Assay - LYMP1-002 - Live Cells (AID 955)
# In short: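 Cytotoxicity in the human lymphoblastoid line LYMP1-002 is measured as loss of live-cell protease activity after 16 h treatment in complete culture medium. AC50 is derived from Hill-equation fits of qHTS concentration-response data.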
# [13] = biological target: Vitamin D3 receptor (Homo sapiens) (UniProt P11473); test: qHTS assay for small molecule antagonists of vitamin D receptor signaling (AID 588541; calls by dose curve;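 further: receptor activated by calcitriol during compound treatment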); settings: HEK293T VDR-UAS-bla, beta-lactamase ratio, antagonist mode; activity change, negative = inhibition: at 76.7 µM (top of the series)
# [14] = Cell Viability - H-4-II-E (AID 543);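 further: cells exposed to compound for 40 hours; nearly all actives have a fitted effect of over 35% in size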
# In short: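 Here, cytotoxicity is measured in the rat hepatoma line H-4-II-E as loss of intracellular ATP after 40 hr compound treatment, detected by luciferase luminescence.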
# [15] = Cell Viability - LYMP2-026 (AID 989); further: nearly all actives have a fitted effect of over 50% in size
# In short: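 Concentration-dependent loss of intracellular ATP in human lymphoblastoid cells after 24 hr at 37 C, quantified by luciferase luminescence. AC50 derived from standard Hill equation.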
# [16] = biological target: Glucocorticoid receptor (Homo sapiens) (UniProt P04150); test: qHTS assay for small molecule agonists of glucocorticoid receptor signaling (AID 588532; active means well fitted curve in the direction sought with a large enough effect in the signal ratio, with a control signal flat; inconclusive means small, poorly fitted or top-dose-only effect, or a change in a side signal; inactive means no such curve, though single readings can be large or run the other way; the % refers to the signal ratio); settings: HeLa MMTV-bla, beta-lactamase ratio, agonist, 18 h; activation: active compounds read high, percent of dexamethasone control, DMSO zero
# In short: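 Stimulation of a glucocorticoid response element-driven beta-lactamase gene was measured in HeLa cells. Responses were scaled between DMSO basal and 0.1 uM dexamethasone, then fitted for half-maximal stimulation.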
# [17] = biological target: Pyruvate kinase (Leishmania mexicana) (UniProt Q27686); test: qHTS Validation Assay for Inhibitors of Leishmania Mexicana Pyruvate Kinase (AID 945); further: potency means the concentration at half of the fitted maximal effect
# In short: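 Substrate mix (0.5 mM PEP, 0.1 mM ADP, 7 mM MgCl2, 50 mM KCl, pH 7.2 imidazole) received compound by pin tool, then 0.2 nM LmPYK E451W. After 1 h at room temperature, PKLight was added and luminescence measured.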
# Tags describe the fitted curve by direction and shape.
# Sequence of UniProt P10635 (P10635 whole entry, looked up): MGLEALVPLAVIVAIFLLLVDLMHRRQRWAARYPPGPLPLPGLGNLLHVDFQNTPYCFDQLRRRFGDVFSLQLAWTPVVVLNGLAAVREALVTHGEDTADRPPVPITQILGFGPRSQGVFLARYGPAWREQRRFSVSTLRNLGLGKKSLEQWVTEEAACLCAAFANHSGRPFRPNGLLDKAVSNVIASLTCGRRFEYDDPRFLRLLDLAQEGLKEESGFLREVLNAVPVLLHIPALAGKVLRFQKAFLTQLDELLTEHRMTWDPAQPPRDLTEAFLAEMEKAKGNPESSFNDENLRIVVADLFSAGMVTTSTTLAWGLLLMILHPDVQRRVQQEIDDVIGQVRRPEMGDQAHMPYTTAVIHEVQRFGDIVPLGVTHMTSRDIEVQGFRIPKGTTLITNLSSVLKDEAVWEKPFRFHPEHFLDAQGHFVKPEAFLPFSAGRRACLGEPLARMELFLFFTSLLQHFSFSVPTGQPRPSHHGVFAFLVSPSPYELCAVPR
# Sequence of UniProt P10275 (P10275 whole entry, looked up): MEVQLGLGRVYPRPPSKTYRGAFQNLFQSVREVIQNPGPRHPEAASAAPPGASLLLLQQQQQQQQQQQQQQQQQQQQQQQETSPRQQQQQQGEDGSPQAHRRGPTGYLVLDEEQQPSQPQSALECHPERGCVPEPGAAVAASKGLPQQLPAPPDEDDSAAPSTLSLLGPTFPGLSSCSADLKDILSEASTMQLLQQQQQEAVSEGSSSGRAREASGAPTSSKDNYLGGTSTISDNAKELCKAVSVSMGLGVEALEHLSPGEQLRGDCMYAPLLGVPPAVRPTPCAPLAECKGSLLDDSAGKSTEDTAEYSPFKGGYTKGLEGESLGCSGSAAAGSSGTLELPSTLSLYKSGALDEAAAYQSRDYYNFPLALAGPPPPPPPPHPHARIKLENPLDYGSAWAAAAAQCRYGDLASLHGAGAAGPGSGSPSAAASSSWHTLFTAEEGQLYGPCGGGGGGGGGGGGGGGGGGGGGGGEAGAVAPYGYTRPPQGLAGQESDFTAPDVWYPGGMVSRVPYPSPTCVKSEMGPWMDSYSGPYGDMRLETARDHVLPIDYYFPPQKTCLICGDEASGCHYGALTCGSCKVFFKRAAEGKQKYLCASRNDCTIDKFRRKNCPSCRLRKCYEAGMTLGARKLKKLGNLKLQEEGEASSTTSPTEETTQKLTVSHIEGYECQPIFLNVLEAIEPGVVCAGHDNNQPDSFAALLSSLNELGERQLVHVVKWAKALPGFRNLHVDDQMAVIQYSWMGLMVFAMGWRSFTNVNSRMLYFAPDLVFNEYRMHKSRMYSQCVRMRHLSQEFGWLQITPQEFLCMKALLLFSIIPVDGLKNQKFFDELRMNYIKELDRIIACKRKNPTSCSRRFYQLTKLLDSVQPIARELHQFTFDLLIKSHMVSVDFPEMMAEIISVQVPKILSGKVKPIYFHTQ
# Sequence of UniProt P04150 (P04150 whole entry, looked up): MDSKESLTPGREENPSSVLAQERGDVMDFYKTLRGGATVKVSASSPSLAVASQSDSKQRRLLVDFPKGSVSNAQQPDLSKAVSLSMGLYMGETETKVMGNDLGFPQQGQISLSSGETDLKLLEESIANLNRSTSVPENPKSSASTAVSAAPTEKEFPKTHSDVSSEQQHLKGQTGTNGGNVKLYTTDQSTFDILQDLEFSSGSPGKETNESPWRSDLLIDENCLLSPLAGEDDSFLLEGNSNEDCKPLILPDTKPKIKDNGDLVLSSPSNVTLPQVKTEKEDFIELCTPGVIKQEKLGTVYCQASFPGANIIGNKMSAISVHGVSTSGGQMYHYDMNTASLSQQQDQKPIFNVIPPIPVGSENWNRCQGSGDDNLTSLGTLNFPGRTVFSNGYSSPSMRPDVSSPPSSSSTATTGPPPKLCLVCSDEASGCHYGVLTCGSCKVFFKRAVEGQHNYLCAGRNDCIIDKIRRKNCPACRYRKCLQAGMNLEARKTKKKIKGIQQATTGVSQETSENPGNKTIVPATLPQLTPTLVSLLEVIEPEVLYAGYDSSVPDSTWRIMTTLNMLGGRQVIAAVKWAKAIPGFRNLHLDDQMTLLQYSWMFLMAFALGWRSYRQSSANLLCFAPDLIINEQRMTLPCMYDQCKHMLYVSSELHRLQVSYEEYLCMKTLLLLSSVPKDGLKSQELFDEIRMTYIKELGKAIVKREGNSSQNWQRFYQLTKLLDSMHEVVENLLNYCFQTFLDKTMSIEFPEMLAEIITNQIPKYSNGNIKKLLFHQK
# Sequence of UniProt P33261 (P33261 whole entry, looked up): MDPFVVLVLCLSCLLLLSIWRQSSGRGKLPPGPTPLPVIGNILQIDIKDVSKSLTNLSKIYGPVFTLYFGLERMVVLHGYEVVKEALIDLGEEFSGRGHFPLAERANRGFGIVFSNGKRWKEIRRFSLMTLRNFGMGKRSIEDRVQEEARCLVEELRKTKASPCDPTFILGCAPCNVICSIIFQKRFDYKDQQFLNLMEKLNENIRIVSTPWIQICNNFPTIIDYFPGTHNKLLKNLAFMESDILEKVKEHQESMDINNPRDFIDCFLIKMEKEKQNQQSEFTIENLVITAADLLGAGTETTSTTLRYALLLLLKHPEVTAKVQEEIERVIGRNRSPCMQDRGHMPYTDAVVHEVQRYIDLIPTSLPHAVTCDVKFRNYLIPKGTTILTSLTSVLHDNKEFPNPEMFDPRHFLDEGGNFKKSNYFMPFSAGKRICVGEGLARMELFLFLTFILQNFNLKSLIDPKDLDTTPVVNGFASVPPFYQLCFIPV
# Sequence of UniProt Q27686 (Q27686 2-499 E452W): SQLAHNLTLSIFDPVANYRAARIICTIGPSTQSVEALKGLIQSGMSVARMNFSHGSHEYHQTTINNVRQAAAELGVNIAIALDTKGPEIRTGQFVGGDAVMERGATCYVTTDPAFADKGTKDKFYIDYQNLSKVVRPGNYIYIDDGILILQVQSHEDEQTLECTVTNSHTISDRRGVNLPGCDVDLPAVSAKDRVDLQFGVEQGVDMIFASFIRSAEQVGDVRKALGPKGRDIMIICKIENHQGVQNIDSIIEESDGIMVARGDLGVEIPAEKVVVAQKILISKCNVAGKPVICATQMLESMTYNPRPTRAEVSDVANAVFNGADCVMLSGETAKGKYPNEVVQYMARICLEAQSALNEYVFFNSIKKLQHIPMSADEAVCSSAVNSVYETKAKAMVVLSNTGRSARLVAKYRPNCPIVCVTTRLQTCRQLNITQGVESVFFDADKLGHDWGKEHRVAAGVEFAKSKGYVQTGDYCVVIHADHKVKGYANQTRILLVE
structure (smiles),measurement,setting,value
OCC(O)CO,Potency,[1],"inconclusive: 10 µM [cytotoxic, partial curve, poor fit]"
O=[N+]([O-])c1cc(C(F)(F)F)ccc1Cl,Potency,[2],inactive
Cc1ccc(N(C)C)cc1,Potency,[3],inactive
same,Potency,[4],inactive
COc1ccc2[nH]cc(CCNc3cc(-c4ccccc4C)ncn3)c2c1,Potency,[5],active: 7.94 µM
O=C(O)[C@H]1C[C@H](C(=O)O)N1,Potency,[6],inactive
Cc1cc(=O)oc2cc(O)cc(O)c12,Potency,[7],inactive
same,Potency,[8],"inconclusive: 22.4 µM [side channel, rising, full curve]"
same,activation,[9],inconclusive: 8.77%
same,Potency,[10],"inconclusive: 50.1 µM [activator, partial curve]"
Cc1ccc([N+](=O)[O-])cc1N,Potency,[11],inactive
Nc1nccs1,Potency,[12],inactive
same,Potency,[13],inactive
CC(=O)c1cccc([N+](=O)[O-])c1,Potency,[14],inactive
same,Potency,[15],inactive
same,activation,[16],inactive: 1.38%
Cc1cccc(/C=C\c2ccccc2)n1,Potency,[17],active: 15.8 µM
